Variants at the background level are over-represented here.
B1: TPR 5TU (parent)
chain: GGAUCUUCUCGAUCUAACAAAAAAGACAAAUCUGCCACAAAGCUUGAGAGCAUCUUCGGAUGCAGAGGCGGCAGCCUUCGGUGGCGCGAUAGCGCCAACGUUCUCAACUAUGACACGCAAAACGCGUGCUCCGUUGAAUGGAGUUUAUCAUG

Variants of: B1
Assay: polymerase ribozyme fitness, log enrichment relative to wild type (log ratio); higher = more active; in vitro selection for triplet polymerase activity
In short: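 A heterodimeric triplet polymerase ribozyme had each of its subunits mutagenized by PCR into a library, which was transcribed. One round of in vitro selection, done in triplicate, annealed each library with a biotinylated primer, its partner subunit and triplets, then incubated it frozen at −7 °C before gel excision of extended constructs, streptavidin-bead capture and RT-PCR. Fitness is the logarithm of genotype enrichment relative to wild-type enrichment, based on Illumina sequencing of inputs and outputs and inverse-variance-weighted replicate averages. A base-2 logarithm is used, and genotypes were kept only with ≥10 input reads and ≥1 read per output.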

Polymerase ribozyme fitness (log ratio), ≤ -4.2:
C57G U61A G83C G88U
G58C G71A C99G A137G
G58U G86C A113G U127A U139A U146C
U56A G92U C103G G140C
U55A G59C C63A G86A A91G C95U A137G G152A
G59A A60C G86A U104G A110U
U56A G84U C93A C118U G141A
C57G C96A U111G U127C G143C
U55G C63A A73G G83A C108G A113U
U56A U77G G84C
C57G A91U
U56A G67U G83U C85U C125U U135A
U56A G67U A91U C99U A106G U144A
G58A G65C C85U C114A C149U
U61A C99U U127A
U61A A73G G83A A115C
A60C G88U G141C U146G U151C
G59A C63A A73G G83A A91C U146A
C57G A60U C93U G124C A137U
C57A G58C G86C C116G G117C
U61A C72G
U55G C108G C132A
U56G C79U C93A U109C G141C
U55A G92A C93G
U55A G65A G84A C99U C108U
U61G A89C C93A C103A
C57A G80A G84U G94A C95A C99U C114U G143A
U56A G83U C87U C95A A121G G143U
C54U C57A G58A G92C G141U U145C
C57U G88U U102C A107G G136U
A60C C75G G140C
G58C A91U C95U C129A
C54G C87G C132U C149U
C54U U56G U61A C69A
A60U C72A A113C A120G
U56A C69U C129G U144G C149A
U56A G62C C63A G88C C149A
C54G G70U U77G G84U C132U
C54U C75G G80C C87G C125U
U55G G65A A73U G92C G141A C149A
A60U G67C A73G C103G U146A
G59U G62A G86A U104A
U55G C85G G100U U151A
U55A G81C C85U G128A
C57U G81A G84A C85G C93G C123U G133U A147C U151G G152C
U55A C57A G84U G92U C125G G136C G140C G143A
U56A C79U G83U C87A A106U
U61A G92U A150C
G59A A73G C96U A107U U144G
U61C C69A G81A C95G
A60G C114U U151C
U56A U82A C93A U111C C114U
C57A A64C G70U C108G
U56A C63U C87G A89U
U61A A110G
C57A C79A A91U
A60G G92A C99G G140C
C57A U82A A89G C96U A107G U134A
U55G G133U A142C
U56A C57G A119U G128U C131G
G58A C85U C108A A120C U151C
C57U G84U C85U C96A C125U U135C
G58C C76U U102G A138C
G59A G68A G74A C85A C118G U144A
G58A U78G C87G
C54G G59A A60U G71C C79G C87A G141C U145C
C57A G74A A91U G100C U101A C118A
U56G C69A C87A A120C A142C U144A
G58C G62C A91C A106C
U56C G58A G128U U135C
U55A C108G A115G A120G C131U
C54U C85A C114U C116G
U55G G88C U134C U135A G141A
C57A C118U C131A A137U A147C
U55A U61A G71A A97U A122C G128A A142U
C57A C79G C87A
G58C G67C G71U C87G
U55A C76G C103U C105U G143C
U55A G80U G84U A91G A98U A106U C114U A142U U151G
U61A A73G C93G A137G
G59U G84U C105G
G59C C116G U139G A142C G143C
U56G C87G
U55G C87A G92A C96U G126A
U55A A97U U102G
C54U G68C U77C G83C
C57G C79G G84U
U61A C76U U102C A106C
G58A C72A C87A U104C
G59C G67C A97G A110G G141C
U56A G88U A107G G136A
C54U G70C C79A G84U A89U U102A G140A G143U
C54U G86C C116U C118G G141C U148G
U55A U78G U82G A137U G141A A147U
G58C G140U U146G A150C
U61A G70U U90C U146G
C54G C69G G84C A107U
U55A A73C C87A G141A
G59C G74U U77G C103G A107G A115C G141U
C54U U77A G83A U145G
G59A G74C G86U C103U
G58C U77G C114A A115G G136U A147U
U55A U77G C103G C105A U144A
C54U U56G A73G U77G G86A U102G
C57U C85G A97C U151G
U61C A121G U139G G140A
C54U C69U G74A U102G U146G
C54G C75U C85A A106U G117C G141A
U56A G83A G128A
G59A G71A A91G G124U G140C
G59A C63G G68C C85U A119C C131G G141C
A60U G83A C132U A150C
U56A G71A U77G G88U C116U
U56G C69G C87G A106C U135G
U61A C85G C132G
G58A G68U A91U A107G A115G U146G
A60U C95G C96A C149G
G59C G65C C87G
U55G G68A G80A G88A
U55A U56A U61C A119U U148C
U61A G68C C79U C93U U139C
G58U U109C C116U
U56A G74U A107G
G58C U90C C99A
U61C G70C G84C
U55A U56A A64G C93U
G58C U78G G92U A107G G143C U148G
U55A C57U A73U U127A
G58A C85A G133A G143C U151A
U56A C72A
C54U G58C A73G G86C A119G A121U
C54U G86U C96G A110U A113U
C57U C108A
C57G G68A C85U U146C
A60U G83A A107C G133C
G58A G62C C87G C93G C96U C123A A142C
U61G C87G C114G A115U U146A
G59U G68U G88C U104G
U55G G81U A89U C93A A106G
U55A A66U G81C C96U G117A C118A A119G
G59A C72U C103G A115U C118G A122U G141U A142C
G59U G74A U77G G86A
A60C A64U G84A C99U U135A
U61A C79U G84U C85G C118U A119G C129A G143C U148G
U55C G84U A106U G143C
C54U G83U C95G C108A A150U
U55A C87A G133A A147U
U56G C85U A137U A150C
C57A A64U C116A
A60G G84U U90C
C54U G86A G94C A98G A142G
C54G C87U C114G A147U
C57A G88U A106C
C57U U61A G65A G71U G83C G140C
U55A C75A G88C G133U
U55A C87G C93A G117A
G58C G65A G81C G86C C105U A113G C125A U134G G140A G141U
C54U U78A U82G G92A A110U A142G
A60C G67C A91G C96U
U55A C79U G84A C108G G124A
G59A C87U C132G G141C U148A
U55A G94C C96G
G59U U78A C87U C93G
G59C C87G U139A
G59C U61A C85A C96A C105A U134A
G58A C99G U111G
C57A A89C U139A

From the RNAGym collection of RNA variant scans (doi:10.1073/pnas.2313332121)
